22 molecules from PMC12136788 can be followed below.

B1: chr14:71588152:71588260:+|CDS|ENSG00000197555|unk|FALSE|unique (ssRNA)
RNA: GGGAGUUCUACAGUCCGACGAUCGAAAACAUAAAAGAAUCUAGCCGUUCAAGCCAGGAAAUAGAAACCUCAAGUUGCCUUGAUAGCCUGUCCUCCAAAAGCAGUCCUGUGAGUCAGGGAAGUUCUGUUAGCCUCAAUUCCAAUCAACAGAGGAUUGAGCAUCA
B2: chr1:1785892:1785993:-|3pUTR|ENSG00000078369|msi1|total|mutant (ssRNA)
RNA: GGGAGUUCUACAGUCCGACGAUCUUUACUCUCCGAAUCGCAUGCUGCCGAAAUGCUCAAAAGUGCAUAUGGGACUCAGUCCUCCGGUGUUCUUUUUCUUUUAAGAAAUAACCUCUUACAGUUGUAACCAUUGCGGCUCUGUCCCAACAGAGGAUUGAGCAUCA
B3: chr5:141516432:141516515:-|3pUTR|ENSG00000131504|msi1_unk|FALSE|overlapping (ssRNA)
RNA: GGGAGUUCUACAGUCCGACGAUCCUCAGACAAGGCCCAGCCUGCUUUUUCUCAGCCCUGACUUUCUAAUGGGCUUUCCCCCCUAGGUCAGUCUUGCUGGAUUUGUGCUUUUCUUUUGUGGUUUCUCUGGCCCUGAGAAUAGCACAACAGAGGAUUGAGCAUCA
B4: chr1:36180537:36180567:+|3pUTR|ENSG00000116871|msi1_unk|FALSE|overlapping (ssRNA)
RNA: GGGAGUUCUACAGUCCGACGAUCCAUACACACAUAUACACUCACAGCCUCUCUGGCCUCUUCCCUUGGGGAGGGGCCACCUGUAGUAUUUGCCUUGAUUUGGUGGGGUACAGUGGAUGUGAAUACUGUAAAUAGCUUGUGCUCCAACAGAGGAUUGAGCAUCA
B5: chr4:83459516:83462902:-|three_prime_utr|ENSG00000163322|control|control|control (ssRNA)
RNA: GGGAGUUCUACAGUCCGACGAUCUUACGGACCUUUUUUCCAAAUUCUGAAUUUCUUCAUUCAUGUGUUAUGUCUUUAAAAAAUAGACAUGUUUCUAAAAGUAGCUGUAACUACAACCACCAUCUCGAUGUAGUAGACAAUCUGCAACAGAGGAUUGAGCAUCA
B6: ENSG00000198589:be:win_3501|CDS|ENSG00000198589|bound_else_gene|NA|bound_elsewhere_windowed (ssRNA)
RNA: GGGAGUUCUACAGUCCGACGAUCUGAUACUGAAACUCAAGAUUCUAAAGAUUCUGGAAUUCAGACUAUGACAGCAUCAGGGUCUUCAGCUAUGUCACCAGAAACUACUGUUUCCCAAAUAGCUGUAGAAUCAGACCUUGGUCACAACAGAGGAUUGAGCAUCA
B7: chr1:220062840:220062943:-|CDS|ENSG00000162813|unk|FALSE|unique (ssRNA)
RNA: GGGAGUUCUACAGUCCGACGAUCGUUUACACAGGCAGGACCAGAUGCUGUGUUGGGGAGGACAAUCUGGGGAGUUUUAGGUUUAGGCGCCUUUGGGUUUCAGCUGAAAGAAGUCCCUGCUGGGAAACACAUUAUCACAACUACCAACAGAGGAUUGAGCAUCA
B8: ENSG00000147536:stop:overlap|stop_codon|ENSG00000147536|stop_codon|NA|stop_codon (ssRNA)
RNA: GGGAGUUCUACAGUCCGACGAUCUCCGCUACGUCCUCAGCAGCUACUUGCGGUGUCGCCUCAUGAAGUUCCCAAACCAGAUCUAGAUUCUUACGUGUUUCUGAGAGUGAGAGAACGACAAGAAAACAUACUGGUAGAACCAGACAACAGAGGAUUGAGCAUCA
B9: chrX:101413019:101413185:+|CDS|ENSG00000126945|unk|FALSE|unique (ssRNA)
RNA: GGGAGUUCUACAGUCCGACGAUCGGAGCUCUUCUUAAAUUCUACUGCAGGAACAAGUGGGGGUGCUUACGAUCACAGCUAUGUAGAACUUUUUUUGAAUUCUACAGCAGGGGCAAGUGGUGGCGCUUAUGGUAGCCAAAUGAUCAACAGAGGAUUGAGCAUCA
B10: chr20:5938399:5938502:-|3pUTR|ENSG00000089195|unk|FALSE|unique (ssRNA)
RNA: GGGAGUUCUACAGUCCGACGAUCGUCUGACUCUUAACCCUUUUGAGAAUUGCUCUGAAUUUUGUUCUCAGGCAUUAUACAGUUAGUAAUUAAACUUUAAAUGCCAUUACUACUUGUUUUUUCAUAUCCCAAGAAUAAGAACAUCAACAGAGGAUUGAGCAUCA
B11: chr7:92612324:92612425:-|3pUTR|ENSG00000105810|msi1|total|mutant (ssRNA)
RNA: GGGAGUUCUACAGUCCGACGAUCAUCCAACACAAGCAGUCUUGCCGUCCGGGCAUUUUGAAGCAGACCGCCGAGUAAGAACUCCGUGACUACAGCUUAUUCUUCUGUAACAUAUGGUUUCAAACAUCUUUGCCAAAAGCUAAGCAACAGAGGAUUGAGCAUCA
B12: chr8:27776916:27777017:+|CDS|ENSG00000171320|unk|FALSE|unique (ssRNA)
RNA: GGGAGUUCUACAGUCCGACGAUCAAACCACAAGUUACACUCCAGGGUGGAGCAGCAUUUUUUGUUAGAAAAAAAUCUUCUCUUAGAAAAUCGUCCCUGGAAAAUGAGCCGUCACUGGGACGCACCCAAAAGAGUAAAUCAGAACAACAGAGGAUUGAGCAUCA
B13: ENSG00000198589:be:win_151|CDS|ENSG00000198589|bound_else_gene|NA|bound_elsewhere_windowed (ssRNA)
RNA: GGGAGUUCUACAGUCCGACGAUCUUGACCGGUUUGGUUGAAGUUGGAGAAGUAUCCAAUAGGGAUAUUGUAGAAACUGUCUUUAACCUGUUGGUAGGAGGACAGUUUGAUCUGGAAAUGAAUUUCAUUAUCCAAGAAGGUGAGCAACAGAGGAUUGAGCAUCA
B14: chr15:60347444:60347559:-|3pUTR|ENSG00000182718|msi1_unk|total|mutant (ssRNA)
RNA: GGGAGUUCUACAGUCCGACGAUCUAACAGUCCCCGUGGCCAUCCCUGUGAGGGUGACGUCCGCAUUACCCCCAACCUCAUUUCCGUUGCCUAAGCAUUGCCUGGCCUUCCUGUCCCGUCUCUCCUGUAAGCCAAAGAAAUGAACAACAGAGGAUUGAGCAUCA
B15: chr14:51255895:51255996:+|3pUTR|ENSG00000139921|msi1_unk|FALSE|overlapping (ssRNA)
RNA: GGGAGUUCUACAGUCCGACGAUCGUGAAUCCAUUAGAUUUACAGUAUCGUAAUAUACAAGUUUUCUUUAAAGCCCUCUCCUUUAGAAUUUAAAAUAUUGUACCAUUGAAGAGUUUGGAUGUGUAACUUGUGAUGCCUUAGAAACAACAGAGGAUUGAGCAUCA
B16: chr2:216122066:216122255:+|CDS|ENSG00000079246|unk|total|mutant (ssRNA)
RNA: GGGAGUUCUACAGUCCGACGAUCCCAUGGGCCUUCCUUUCCACUAAAAGGAAUUACCGAACAGCAAAAAGAAGGUCUUGAGACCGUGAAAAUGGUGAUGAUAUCUUCCGAAGGUGAAGAUGGGUUGGAUGAAAUUUAUUCAUUCAACAGAGGAUUGAGCAUCA
B17: chr15:83017406:83017507:-|3pUTR|ENSG00000064726|msi1|FALSE|unique (ssRNA)
RNA: GGGAGUUCUACAGUCCGACGAUCGGCCUAAUAAAAUGCCCAAGAAAAUAUUCAGUGCAUUUAUAGAGAAGGAUAUUUUGUAGUAGUAUAGUAAUGUGUUAUGUAGUACAGUUUUAAAGCUAUAAAUGGAAUUUUGUGUAAAUUCAACAGAGGAUUGAGCAUCA
B18: chr6:113953301:113953428:-|CDS|ENSG00000196591|unk|FALSE|unique (ssRNA)
RNA: GGGAGUUCUACAGUCCGACGAUCAAAAACCAAAACUUAUGGAUUUGUUUUCAGGUAUCAUCAGAGAGUCUUAUAUAUUGAUAUAGAUAUUCAUCAUGGUGAUGGUGUUGAAGAAGCUUUUUAUACAACAGAUCGUGUAAUGACCAACAGAGGAUUGAGCAUCA
B19: chr2:216672581:216672718:-|3pUTR|ENSG00000115461|msi1|FALSE|unique (ssRNA)
RNA: GGGAGUUCUACAGUCCGACGAUCCACUCCACCAGUCCCCGGUCGCCAGCCGGAGUCUCCUCUCUACCGCCACUGUCACACCGUAGCCCACAUGGAUAGCACAGUUGUCAGACAAGAUUCCUUCAGAUUCCGAGUUGCCUACCGCAACAGAGGAUUGAGCAUCA
B20: chr21:25881503:25881610:-|3pUTR|ENSG00000142192|msi1_unk|total|mutant (ssRNA)
RNA: GGGAGUUCUACAGUCCGACGAUCACAAACCCGUUUUAUGAUUUACUCAUUAUCGCCUUUUGACAGCUGUGCUGUAACACAAGCCGAUGCCUGAACUUGAAUUAAUCCACACAUCAGUAAUGUAUUCUAUCUCUCUUUACAUUUCAACAGAGGAUUGAGCAUCA
B21: chr8:103332422:103332528:+|3pUTR|ENSG00000164930|msi1|FALSE|unique (ssRNA)
RNA: GGGAGUUCUACAGUCCGACGAUCUUUUUUAACAUUUAGAAUAUUACAUUUUGUAUUAUACAGUACCUUUCUCAGACAUUUUGUAGAAUUCAUUUCGGCAGCUCACUAGGAUUUUGCUGAACAUUAAAAAGUGUGAUAGCGAUACAACAGAGGAUUGAGCAUCA
B22: chr13:113097702:113097803:+|3pUTR|ENSG00000126217|unk|FALSE|unique (ssRNA)
RNA: GGGAGUUCUACAGUCCGACGAUCAAAGAAAAUACAAAGAUGCAGUUUCUGCAGGGUGUGGCGUGGACCAGUGCUGCCGACCAUAGCUCAGAGAGCCCUGCCCCUGCCUCACUGCACUGCAGCCUCCUCGGAGGCCGCACCUCCCAACAGAGGAUUGAGCAUCA

Some of the results follow.

The assay has as its target MSI1 full-length (mouse, UniProt Q61474 1-362). The experiment in a line: nsRBNS (natural sequence RNA bind-n-seq); RBNS binding buffer (assumed for nsRBNS): 25 mM Tris pH 7.5, 150 mM KCl, 3 mM MgCl2, 0.01% Triton X-100, 500 ug/ml BSA, 20 U/ml SUPERase-In, 4 C; UNK is unkempt and MSI1 is Musashi-1; names of the RNAs are library labels; protein concentration not given here; high values mean tight binding.
Chain of UniProt Q61474 (Q61474 whole entry): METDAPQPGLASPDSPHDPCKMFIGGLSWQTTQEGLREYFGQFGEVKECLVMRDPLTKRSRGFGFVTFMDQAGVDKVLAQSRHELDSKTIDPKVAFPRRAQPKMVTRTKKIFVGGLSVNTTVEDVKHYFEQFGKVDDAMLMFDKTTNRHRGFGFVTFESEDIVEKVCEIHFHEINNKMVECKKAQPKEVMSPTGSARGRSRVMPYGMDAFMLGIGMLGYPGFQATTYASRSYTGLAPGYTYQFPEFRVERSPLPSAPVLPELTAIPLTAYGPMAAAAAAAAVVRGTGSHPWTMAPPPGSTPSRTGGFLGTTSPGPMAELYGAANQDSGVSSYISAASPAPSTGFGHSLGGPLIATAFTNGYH
On to B1, for which the binding signal was 1.35 enrichment R.
The molecule B2 displayed a binding signal of 0.378 enrichment R.
B3 had a binding signal of 0.443 enrichment R.
Molecule B4 yielded a binding signal of 0.399 enrichment R.
B5: the binding signal stood at 1.05 enrichment R.
B6 had a binding signal of 0.215 enrichment R.
Consider B7, for which the binding signal was determined as 0.838 enrichment R.
For the molecule B8, the binding signal was found to be 26.3 enrichment R.
B9 displayed a binding signal of 0.678 enrichment R.
B10 showed a binding signal of 0.767 enrichment R.
The molecule B11 displayed a binding signal of 0.596 enrichment R.
For the molecule B12, the binding signal worked out at 1.48 enrichment R.
With B13 the figure was 2.2 enrichment R; with B14, 0.538 enrichment R.
For B15, the binding signal is 5.27 enrichment R.
The same measure for B16: 0.285 enrichment R.
For the molecule B17, the binding signal amounted to 44.9 enrichment R.
B18: the binding signal is 0.581 enrichment R.
For the molecule B19, the binding signal is 0.785 enrichment R.
The molecule B20 registered a binding signal of 0.396 enrichment R.
In the case of B21, the binding signal worked out at 51.5 enrichment R.
Turning to B22, the binding signal is 0.489 enrichment R.
